{"source": "PubChem BioAssay AID2546", "about": "(National Center for Advancing Translational Sciences (NCATS), 2010)", "note": "Values joined by “and” are separate entries in the source; they are usually repeats but may differ in a detail not shown here. Identical values can stand only once. Screen size: about 310,000 compounds; about 11,000 (3.5%) were called active. The inconclusive results got no clear call from the source; some entries with a clear call stand among them for comparison. The call rests on the fitted dose curve; in most records, active means well fitted inhibition curve with a large enough effect; inconclusive means small, poorly fitted or top-dose-only effect, or effect the other way; inactive means flat fitted curve, though single readings scatter. Potencies of inconclusive entries are left out as doubtful fits. Potency means the concentration at half of the fitted maximal effect; tags describe the fitted curve by direction and shape."}
{"test": "VP16 counterscreen qHTS for inhibitors of ROR gamma transcriptional activity;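 further: Gal4-VP16 expression switched on by copper sulfate through the metallothionein promoter; nearly all actives have a fitted effect of over 50% in size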", "details": "Drosophila S2 Gal4-VP16 UAS-luciferase, luminescence, 20 h; series mostly up to 53.6 µM"}
{"smiles": "Cc1ccc2oc(=O)c(/C=C(\\O)c3sc(C)nc3C)nc2c1", "Potency": "inconclusive [inhibitor, single point]"}
{"smiles": "O=C(/C=C/Nc1ccc(F)cc1F)c1cccs1", "Potency": "active: 2.51 µM"}
{"smiles": "Cc1cc(S(=O)(=O)NCc2ccncc2)c(C)cc1Br", "Potency": "active: 10 µM"}
{"smiles": "Cc1ccc(N/C=C/C(=O)c2ccccc2)cc1Br", "Potency": "inconclusive [inhibitor, single point]"}
{"smiles": "CC(C)(C)c1ccc(-c2cc(-c3ccccc3O)[nH]n2)cc1", "Potency": "active: 7.08 µM"}
{"smiles": "N#CCSc1nccc(/C=C/c2ccccc2)n1", "Potency": "inconclusive [activator, partial curve]"}
{"smiles": "O=C(NC1CCCCC1)C(c1ccccc1F)N(Cc1ccco1)C(=O)Cn1nnc2ccccc21", "note": "(configuration not stated)", "Potency": "inactive"}
{"smiles": "CC(NC(=O)c1ccc2c(c1)OCO2)c1ccccc1", "note": "(configuration not stated)", "Potency": "inactive"}
{"smiles": "COc1ccc(C2c3ccc4ccccc4c3Oc3ncn(CCCN(C)C)c(=N)c32)cc1", "note": "(configuration not stated)", "Potency": "inconclusive [inhibitor, single point]"}
{"smiles": "CC(C)Nc1ccc(-n2nc3ccccc3[n+]2[O-])cc1", "Potency": "active: 10 µM"}
{"smiles": "O=S(=O)(NCc1ccco1)c1cnc(Cl)c(Br)c1", "Potency": "inactive"}
{"smiles": "CCCCNC(=O)CN1C(=O)NC(Cc2ccccc2)(Cc2ccccc2)C1=O", "Potency": "inactive"}
{"smiles": "Cc1cc(C(=O)COC(=O)c2ccc[nH]c2=O)c(C)n1-c1ccccc1F", "Potency": "inconclusive [inhibitor, full curve, poor fit]"}
{"smiles": "CCC1CCCCN1CCCNC(=O)c1ccc(CS(=O)(=O)c2ccccc2OC)o1", "note": "(configuration not stated)", "Potency": "inactive"}
{"smiles": "Cc1oc(-c2ccc3c(c2)OCCO3)cc1C(=O)NCC(=O)O", "Potency": "inconclusive [inhibitor, full curve]"}
{"smiles": "CCCCCc1ccc(OCCCC[n+]2ccc(C)cc2)c(CCCCC)c1", "Potency": "active: 2.82 µM"}
{"smiles": "COc1cccc(C(=O)Nc2cccc(OCC(=O)c3ccccc3)c2)c1", "Potency": "inconclusive [inhibitor, partial curve]"}
{"smiles": "CCc1c(C)nc2cc(-c3cccc(Br)c3)[nH]n2c1=O", "Potency": "inconclusive [inhibitor, single point]"}
{"smiles": "COCCn1c(C)cc(C(=O)CSc2ncnc3sc4c(c23)CCC4)c1C", "Potency": "inconclusive [inhibitor, single point]"}
{"smiles": "CCc1cccc(CC)c1-n1c(-c2cccnc2)n[nH]c1=S", "Potency": "active: 15.8 µM"}
{"smiles": "Cc1cc(C(=O)N/N=C/c2ccc([N+](=O)[O-])s2)c2ccccc2n1", "Potency": "active: 3.55 µM"}
{"smiles": "COc1ccccc1-c1nnc(N)s1", "Potency": "inactive"}
{"smiles": "Cc1ccc(C(=O)C2=C(O)C(=O)N(Cc3cccnc3)C2c2ccc(Cl)cc2)o1", "note": "(configuration not stated)", "Potency": "inactive"}
{"smiles": "CCOC(=O)c1c(NC(=O)CSc2c[nH]c3ccccc23)sc2c1CCCC2", "Potency": "inconclusive [inhibitor, single point]"}
{"smiles": "CCCCNc1nc(=S)[nH]c2cc(OC)c(OC)cc12", "Potency": "active: 7.94 µM"}
{"smiles": "O=[N+]([O-])c1ccc(O)c(/C=N/Nc2ncnc3c2cnn3-c2ccccc2)c1", "Potency": "inconclusive [inhibitor, single point]"}
{"smiles": "COc1cccc(-c2nnc3n2N=C(c2ccccc2OC)CS3)c1", "Potency": "inconclusive [inhibitor, single point]"}
{"smiles": "O=C(CCNS(=O)(=O)c1cccc2nonc12)N1CCN(c2cccc(Cl)c2)CC1", "Potency": "inactive"}
{"smiles": "CCCNc1ncnc2c1cnn2-c1ccc(OC)cc1", "Potency": "inconclusive [inhibitor, single point]"}
{"smiles": "CCCOc1ccc(N2C(=O)CC(N(Cc3ccc(OC)cc3)C(=S)Nc3ccccc3)C2=O)cc1", "note": "(configuration not stated)", "Potency": "inconclusive [inhibitor, partial curve, poor fit]"}
{"smiles": "Cc1nnc(NC(=O)c2oc3ccccc3c2C)s1", "Potency": "inconclusive [activator, full curve, poor fit]"}
{"smiles": "c1ccc(-c2cn3c(n2)CCc2ccc4cccnc4c2-3)cc1", "Potency": "active: 7.94 µM"}
{"smiles": "Cc1ccc(NC(=O)c2ccc(N/N=C/c3cccc(O)c3)c([N+](=O)[O-])c2)cc1", "Potency": "inconclusive [inhibitor, partial curve]"}
{"smiles": "COc1cccc(C(=S)N2CCCC2)c1OC", "Potency": "active: 0.0794 µM"}
{"smiles": "CCC(=O)O", "Potency": "inactive"}
{"smiles": "COC(=O)c1sc(S(=O)(=O)N2CCC(C)CC2)c(C(=O)OC)c1C", "Potency": "inconclusive [inhibitor, single point]"}
{"smiles": "CCOc1cccc(C2C(C(=O)c3ccco3)=C(O)C(=O)N2Cc2ccncc2)c1", "note": "(configuration not stated)", "Potency": "inconclusive [activator, single point]"}
{"smiles": "CCOc1cc(C(N)=O)cc(Br)c1OC", "Potency": "inactive"}
{"smiles": "Cc1cc(C)nc(SCCCNCc2ccc(Br)cc2)n1", "Potency": "inconclusive [inhibitor, single point]"}
{"smiles": "c1ccc(N/N=C(\\Cc2nc3ccccc3[nH]2)c2ccccc2)cc1", "Potency": "inconclusive [inhibitor, single point]"}
{"smiles": "COc1ccc(/C=C(\\C#N)C(=O)OCC(=O)Nc2ccc(-c3nc4ccc(C)cc4s3)cc2)cc1", "Potency": "active: 2 µM"}
{"smiles": "CCN(CC)S(=O)(=O)c1ccc(Cl)c(C(=O)Nc2cc(C)nn2-c2ccccc2)c1", "Potency": "inactive"}
{"smiles": "N#CC1=C(N)SC2(CCCCC2)SC1c1ccccc1", "note": "(configuration not stated)", "Potency": "inconclusive [inhibitor, single point]"}
{"smiles": "CCCc1cc(=O)oc2cc(C)cc(OC(C)C(=O)NCc3cccnc3)c12", "note": "(configuration not stated)", "Potency": "inactive"}
{"smiles": "c1ccc2c(c1)Cc1cc3cc4c(cc3nc1-2)OCO4", "Potency": "active: 2.24 µM"}
{"smiles": "COc1ccc(S(=O)(=O)NCc2cccnc2)cc1Br", "Potency": "active: 11.2 µM"}
{"smiles": "CCCCCCCC/C=C\\CCCCCCCC(=O)N[C@@H](CO)Cc1ccc(O)cc1", "Potency": "inconclusive [inhibitor, single point]"}
{"smiles": "Cc1ccc(S(=O)(=O)c2ccccc2)cc1S", "Potency": "inconclusive [inhibitor, single point]"}
{"smiles": "O=C(CSCC(=O)Nc1ccccc1)N/N=C/c1c(O)ccc2ccccc12", "Potency": "active: 3.55 µM"}
{"smiles": "Cc1csc(NC(=O)CSCC(=O)O)c1-c1nc2ccccc2s1", "Potency": "active: 8.91 µM"}
{"smiles": "CC(C)c1ccc(/C=N/NC(=O)c2cccc(Cl)c2)cc1", "Potency": "inconclusive [activator, partial curve, poor fit]"}
{"smiles": "COc1ccc(OCC(=O)Nc2nccs2)cc1", "Potency": "active: 7.94 µM"}
{"smiles": "COc1cc(/C=N\\NC(C)=O)ccc1OC/C=C/c1ccccc1", "Potency": "active: 0.447 µM"}
{"smiles": "COC(=O)c1ccc2[nH]c3cccc(/C(=C/c4ccccc4)c4ccccc4)c3c2c1", "Potency": "inconclusive [inhibitor, single point]"}
{"smiles": "C1CSC2(N1)C1CC3CC2CC(C1)C31NCCS1", "note": "(configuration not stated)", "Potency": "inactive"}
{"smiles": "O=C(OCC(=O)N1CCN(C(=O)c2ccco2)CC1)c1cc(S(=O)(=O)Nc2ccc(Cl)cc2)ccc1O", "Potency": "inconclusive [inhibitor, single point]"}
{"smiles": "CN(C)S(=O)(=O)c1ccc(S(=O)(=O)N(Cc2ccco2)Cc2ccccc2Cl)cc1", "Potency": "inactive"}
{"smiles": "CSc1ccc(CN2CCC(n3nccc3NC(=O)CCCc3ccccc3)CC2)cc1", "Potency": "inconclusive [inhibitor, single point]"}
{"smiles": "COc1cccc(/C=c2\\s/c(=C\\C(=O)C(C)(C)C)[nH]c2=O)c1", "Potency": "inconclusive [inhibitor, single point]"}
{"smiles": "COc1ccc(OC)c(S(=O)(=O)NCCC2=CCCCC2)c1", "Potency": "inconclusive [inhibitor, single point]"}
{"smiles": "CCOc1ccc(/C=C/C2=CC(C)(C)NC(=S)N2)cc1", "Potency": "active: 2.24 µM"}
{"smiles": "Cc1cc(C)c(C#N)c(SCc2nc3ccccc3c(=O)[nH]2)n1", "Potency": "inconclusive [activator, single point]"}
{"smiles": "Oc1c(I)cc(I)c2cccnc12", "Potency": "active: 708 nM and active: 4.47 µM"}
{"smiles": "Cc1ccc(-c2nnn(CC(=O)N(c3ccc(F)cc3)C(C(=O)NC3CCCC3)c3ccco3)n2)o1", "note": "(configuration not stated)", "Potency": "inconclusive [inhibitor, single point]"}
{"smiles": "COc1ccccc1-n1cnnc1SCC(=O)Nc1cc(C(C)(C)C)nn1-c1ccccc1", "Potency": "inconclusive [inhibitor, partial curve]"}
{"smiles": "CC1CCC(=O)N(CCSc2ccccc2)CC1", "note": "(configuration not stated)", "Potency": "inconclusive [inhibitor, single point]"}
{"smiles": "CCc1nnc(NC(=O)CN2CCN(c3nc(-c4ccccc4)cs3)CC2)s1", "Potency": "inconclusive [inhibitor, single point]"}
{"smiles": "Cc1cc(C)c(CN2CCC(n3nccc3NC(=O)c3ccccc3Cl)CC2)cc1C", "Potency": "inactive"}
{"smiles": "Cc1ccc(NNC(=O)c2ccc(Cl)cc2)nn1", "Potency": "inconclusive [inhibitor, single point]"}
{"smiles": "Cc1nonc1C(=O)N/N=C/c1cccc(O)c1", "Potency": "inconclusive [activator, single point]"}
{"smiles": "O=C(O)c1c(-c2ccccc2)oc2ccc(O)cc12", "Potency": "inactive"}
{"smiles": "O=C(NC1=NCCS1)c1ccc(-c2ccc(Cl)cc2)o1", "Potency": "inconclusive [inhibitor, single point]"}
{"smiles": "Cc1ccc(C(C(=O)NC2CCCCC2)N(C(=O)Cc2c[nH]c3ccccc23)c2ccccc2C)o1", "note": "(configuration not stated)", "Potency": "inconclusive [inhibitor, single point]"}
{"smiles": "COc1ccc(/C=C/C(=O)OCCC(C)C)cc1", "Potency": "inactive"}
{"smiles": "Cc1ccc(-c2csc(NC(=O)CCNC(=O)c3ccco3)n2)cc1", "Potency": "inactive"}
{"smiles": "C=CS(=O)(=O)c1sc(Cl)c(N2CCOCC2)c1[N+](=O)[O-]", "Potency": "active: 7.08 µM"}
{"smiles": "CCSc1nnc(NC(=O)C2CC2c2ccccc2)s1", "note": "(configuration not stated)", "Potency": "inconclusive [inhibitor, partial curve]"}
